# Experimental data from PubChem BioAssay AID1461 (National Center for Advancing Translational Sciences (NCATS), 2008).
# About 2,300 (1%) of roughly 220,000 compounds were called active. The shares of active, inactive and inconclusive entries below differ from those in the screen. Calls follow the shape of the dose curve; as a rule, active = well fitted inhibition curve with a large enough effect; inconclusive = small, poorly fitted or top-dose-only effect, or effect the other way; inactive = no such curve, though single readings can be large or run the other way. No potency is given beside an inconclusive call; the fits are too rough.
# Target: Neuropeptide S receptor (Homo sapiens) (UniProt Q6W5P4)
# Sequence of UniProt Q6W5P4 (Q6W5P4 whole entry, looked up): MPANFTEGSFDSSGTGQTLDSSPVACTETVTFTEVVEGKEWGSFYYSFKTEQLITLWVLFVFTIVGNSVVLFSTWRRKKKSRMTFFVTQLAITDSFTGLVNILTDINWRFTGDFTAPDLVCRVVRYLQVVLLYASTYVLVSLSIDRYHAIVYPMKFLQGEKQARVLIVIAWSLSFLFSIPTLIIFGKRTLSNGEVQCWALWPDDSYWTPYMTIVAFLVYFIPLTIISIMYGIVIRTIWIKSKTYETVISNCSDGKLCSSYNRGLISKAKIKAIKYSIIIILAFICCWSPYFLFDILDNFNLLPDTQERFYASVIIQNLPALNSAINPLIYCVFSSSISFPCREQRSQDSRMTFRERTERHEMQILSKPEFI
# Test: qHTS Assay for Antagonists of the Neuropeptide S Receptor: cAMP Signal Transduction; also: nearly all actives have a fitted effect of over 50% in size
# Settings: CHO-NPSR cells, cAMP TR-FRET, antagonist mode; activity change, negative = inhibition: at 38.3 µM (top of the series) unless noted
# % is scaled to controls: 0 for no effect and ±100 for the full control effect; potency is read from the fitted curve at half-maximal effect; tags tell the direction and shape of the fitted curve.
Structure (SMILES),"activity change, negative = inhibition",Potency
CCCCC(CC)C(=O)N1CCN(C(=O)c2ccco2)CC1 (centres undefined),inactive: 1.44%,–
CCC(C(=O)Nc1ccccc1OC)n1c(C(=O)OC)cc2ccsc21 (centres undefined),–,"inconclusive [inhibitor, partial curve]"
COc1cc2nc(SCc3ccc(C(F)(F)F)cc3)n(Cc3cccs3)c(=N)c2cc1OC,inactive: -17% [at 46.1 µM],–
O=C(CSc1nnc(-c2cccc(Cl)c2)o1)Nc1ccc2c(c1)OCCO2,–,"inconclusive [inhibitor, single point]"
Cc1nc(=O)c(-c2ccccc2)c(C)n1-c1cccc(C(=O)O)c1,inactive: 10.5% [at 46.1 µM],–
O=[N+]([O-])c1ccc(N2CCCCCC2)c(S(=O)(=O)N2CCCCC2)c1,–,"inconclusive [inhibitor, partial curve]"
O=C(Nc1ccccc1)Nc1ccc(S(=O)(=O)N2CCCCC2)cc1,inactive: -18.9% [at 46.1 µM],–
COC(=O)c1c(C)oc2ccc(OC(=O)c3cccs3)cc12,inactive: 4.78% [at 46.1 µM],–
CC(=O)OC(/C(O)=C(\C#N)c1nc2ccccc2[nH]1)c1ccccc1 (centres undefined),inactive: -15.5% [at 46.1 µM],–
CC(=O)Nc1ccc(Nc2ccc(S(=O)(=O)C(F)(F)F)cc2[N+](=O)[O-])cc1,–,"inconclusive [inhibitor, single point]"
CCOC(=O)Cn1nnnc1CN(Cc1cccs1)Cc1cc2cc(C)cc(C)c2[nH]c1=O,–,"inconclusive [inhibitor, partial curve, poor fit]"
Cc1ccc(C(=O)NCCSc2ccc(Cl)cc2)cc1S(=O)(=O)Nc1ccccc1,–,"inconclusive [inhibitor, partial curve]"
FC(F)(F)c1cc(CCN2C(=S)NC[C@@H]2c2ccccc2)cc(C(F)(F)F)c1,–,"inconclusive [inhibitor, single point]"
C=CCS/C(N)=N\N=C\c1c(O)ccc2ccccc12,–,"inconclusive [activator, single point]"
Cc1ccc(-n2cc(CN3CCC(CO)(Cc4cccc(C(F)(F)F)c4)CC3)cn2)cc1,–,"inconclusive [activator, single point]"
CCOc1cc(/C=C(/C#N)c2ccc(Cl)cc2)cc(Cl)c1OCC(=O)O,–,"inconclusive [activator, partial curve]"
COc1ccc(Cn2nnnc2C(c2ccccc2)N2CCN(C3CCCC3)CC2)cc1 (centres undefined),–,"inconclusive [inhibitor, single point]"
Cc1ccc(CCNC(=O)C2CCCN(S(=O)(=O)c3cccc4nsnc34)C2)cc1 (centres undefined),–,"inconclusive [inhibitor, single point]"
CC1CCN(C(c2ccccc2)c2nnnn2C(C)(C)C)CC1 (centres undefined),–,"inconclusive [inhibitor, single point]"
CC/C(=N\NC(N)=O)c1ccc(OC)c(OC)c1,–,"inconclusive [activator, single point]"
O=C(O)c1ccccc1C(=O)Nc1cccc([N+](=O)[O-])c1,inactive: -22.5%,–
CCOc1ccc2nc(SC3CC(=O)N(c4cccc(OC)c4)C3=O)sc2c1 (centres undefined),–,"inconclusive [inhibitor, single point]"

Structure (SMILES),"activity change, negative = inhibition",Potency
CCOc1cc(/C=C2/SC(=Nc3ccccc3)N(Cc3cccnc3)C2=O)ccc1OCC#N,–,"inconclusive [inhibitor, partial curve]"
COc1ccc(C(C)=O)cc1CSc1nc2cc(Cl)ccc2o1,–,"inconclusive [inhibitor, single point]"
COc1ccccc1NC(=O)c1c(C)nc2ccccc2c1C(=O)O,inactive: 0.204% [at 7.67 µM],–
Cc1ccccc1N(CC(=O)NCCc1ccccc1)C(=O)c1ccc(N2CCCC2)nc1,–,"inconclusive [inhibitor, partial curve]"
Cc1cc(-n2c(C)cc(C(=O)COc3ccc([N+](=O)[O-])cc3)c2C)no1,inactive: -7.69%,–
Cc1oc2c(c1C(=O)NCc1cccnc1)C(=O)c1ccccc1C2=O,–,"inconclusive [activator, full curve]"
C=CCOC(=O)C1=C(C)NC(=S)NC1/C=C/c1ccccc1 (centres undefined),inactive: -18.6% [at 46.1 µM],–
O=C(COC(=O)c1cccc([N+](=O)[O-])c1)c1ccc(OCc2ccccc2)cc1,inactive: 2.69%,–
c1ccc(-c2nnc(N3CCOCC3)nc2-c2ccccc2)cc1,–,"inconclusive [inhibitor, single point]"
COc1ccc(OCCn2c(=N)n(CCO)c3ccccc32)cc1,–,"inconclusive [activator, partial curve, poor fit]"
O=C(NCc1ccco1)c1cnc2sccn2c1=O,inactive: 2.08% [at 46.1 µM],–
COC(=O)[C@H]1[C@H](C(=O)OC)[C@@H](C(=O)OC)N(c2ccc(OC)cc2)[C@@H]1C(=O)OC,inactive: -2.21%,–
CCCCN1C(=O)/C(=C2\SC(N3CCCCC3)=NC2=O)c2ccccc21,–,"inconclusive [inhibitor, partial curve]"
CCCNC(=O)c1ccccc1NC(=O)c1ccc(CSc2ccccc2)cc1,–,"inconclusive [inhibitor, partial curve, poor fit]"
CC(=O)C1=NN(c2ccccc2)C2(S1)S/C(=C\c1ccccc1)C(=O)N2c1ccccc1 (centres undefined),–,"inconclusive [inhibitor, single point]"
CC1=NNC(=O)/C1=C\c1cn(-c2ccccc2)nc1-c1cccs1,–,active: 10 µM
COc1cc(NC(=O)c2ccc(-c3ccc(Br)cc3)o2)ccc1NC(=O)C(C)C,–,"inconclusive [activator, single point]"
Cc1csc(NC(=O)C2CCC(C)(C(=O)O)C2(C)C)n1 (centres undefined),–,"inconclusive [inhibitor, full curve, poor fit]"
Cn1c(Cn2nnc(-c3ccccc3)n2)nnc1SCc1ccccc1Cl,–,"inconclusive [inhibitor, single point]"
Cc1nn(CCC(=O)NNC(=S)Nc2cccc(Cl)c2)c(C)c1[N+](=O)[O-],inactive: -13%,–
Cc1ccc(S(=O)(=O)N(c2nc(N(C)C)nc(N(C)C)n2)n2cnnc2)cc1,inactive: -21.4% [at 46.1 µM],–
CCOC(=O)/C(C#N)=C/c1ccc(OCC(=O)Nc2ccccc2)c(OC)c1,–,"inconclusive [activator, single point]"
